Measurements as given in patent US20040022772A1.

Biological target: p160 BCR (human) (UniProt P11274)
Assay: cell-based or functional assay

Chain of UniProt P11274 (P11274 whole entry): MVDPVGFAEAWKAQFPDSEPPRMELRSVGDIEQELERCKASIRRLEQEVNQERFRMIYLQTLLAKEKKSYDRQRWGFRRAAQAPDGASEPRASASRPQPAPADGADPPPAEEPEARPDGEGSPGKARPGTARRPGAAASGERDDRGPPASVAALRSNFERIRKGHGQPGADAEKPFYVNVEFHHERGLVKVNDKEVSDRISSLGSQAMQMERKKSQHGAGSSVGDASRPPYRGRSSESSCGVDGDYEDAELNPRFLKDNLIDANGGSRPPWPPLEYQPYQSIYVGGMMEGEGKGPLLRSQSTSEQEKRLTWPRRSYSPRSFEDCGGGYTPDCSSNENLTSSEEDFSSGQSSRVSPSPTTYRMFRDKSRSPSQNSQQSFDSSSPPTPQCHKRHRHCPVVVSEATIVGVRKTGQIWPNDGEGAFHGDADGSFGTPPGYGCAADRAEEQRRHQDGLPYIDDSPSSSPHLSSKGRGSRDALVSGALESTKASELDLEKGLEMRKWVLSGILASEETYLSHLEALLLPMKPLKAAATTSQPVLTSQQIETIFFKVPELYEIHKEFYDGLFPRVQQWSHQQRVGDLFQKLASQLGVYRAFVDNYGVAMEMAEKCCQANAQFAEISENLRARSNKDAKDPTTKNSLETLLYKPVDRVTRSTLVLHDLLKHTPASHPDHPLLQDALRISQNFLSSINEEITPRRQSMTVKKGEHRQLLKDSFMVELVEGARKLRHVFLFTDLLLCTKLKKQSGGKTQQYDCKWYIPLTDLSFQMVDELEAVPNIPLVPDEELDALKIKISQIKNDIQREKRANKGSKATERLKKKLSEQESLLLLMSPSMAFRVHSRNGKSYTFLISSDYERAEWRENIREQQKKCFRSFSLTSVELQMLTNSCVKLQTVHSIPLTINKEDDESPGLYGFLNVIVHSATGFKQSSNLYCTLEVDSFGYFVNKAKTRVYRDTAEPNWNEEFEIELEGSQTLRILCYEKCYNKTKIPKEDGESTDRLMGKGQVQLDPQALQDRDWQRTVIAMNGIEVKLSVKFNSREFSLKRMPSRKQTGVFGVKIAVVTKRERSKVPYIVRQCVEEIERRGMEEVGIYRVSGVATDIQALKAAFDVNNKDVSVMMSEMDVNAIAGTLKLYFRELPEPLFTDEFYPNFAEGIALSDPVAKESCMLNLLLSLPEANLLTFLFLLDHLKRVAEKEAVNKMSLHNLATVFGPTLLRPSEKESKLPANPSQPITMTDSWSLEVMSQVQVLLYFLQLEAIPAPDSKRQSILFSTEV

Substance p210 BCR-ABL has a fold decrease in casein phosphorylation activity of Bcr isolated from cells coexpressing Bcr-Abl of 25 fold.
